Results reported in the supplement of paper PMC11417369.
This is one part of the list.

test system: PfAP2-HC AP2 domain (GST-tagged); test: gcPBM binding intensity (ln(normalized median fluorescence intensity)); higher = stronger DNA binding
Summary of the method: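 An Agilent 4 × 180k array of primer-extended double-stranded 36-bp intergenic genomic probes, with negative controls, was incubated for 1 h with GST-tagged P. falciparum DNA-binding domains expressed in E. coli. Alexa488 anti-GST antibody detected bound protein, scanned at 488 nm. Binding intensity is the highest Masliner-normalised natural-log median intensity across replicate spots of either probe orientation.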

Sequence | gcPBM binding intensity (ln)
AAAAAATTGACTAATGCACACAATTACAGATATATA [CACACA_site5010] | 9.89
AAAGATAAAAAAAGTACACACACACCGATATATATA [CACACA_site9006] | 10.6
CACGAACACAAACACAAACACACATCATATATATAT [CACACA_site1322] | 10.1
ACTTTAACCTGAACGGTGCATAAAATTTTGGCATTA | 9.48
AATATATATAAAAAGGGAAAAATATATAAATAGATA [XGTACX_negctrl_site52] | 9.7
TTTCATTAATCTAATAGTACAGAAAATTGAGAAAAA [XGTACX_site8395] | 9.2
TCTATTAATTAATATACACACATTATGTATATATAT [CACACA_site2541] | 9.82
GTATACAAACATATAAATATAAATGTATTATTTGTT [CACACA_negctrl_site756] | 9.58
TCGTGCATAAATCATACACACACACCGATATATATA [CACACA_site8767] | 10.2
TCACAATTTTTTAGTACACACATATAAATATATAAA [CACACA_site1537] | 9.58
TTTGTATCCTTTTTGACATGCAACCATTCGGGTACA [TGCATGCA_site506] | 9.39
AAAAAAAAAAAAAACGCACACATTTTTACAATTCTA [CACACA_site3271] | 9.99
AAAAAATTAATAAAAACACACAAAAAAAATAAACAA [CACACA_site1907] | 9.95
TTTGTTGTTTGGAGATGTACATATTTTACACTTTTT [XGTACX_site5965] | 10.4
ATTTCACAGAGACACACACACAATATATTTCCTTTT [CACACA_site7773] | 10.3
TAAACATAATATTTAACACACATGAAGATGTATATT [CACACA_site1036] | 9.78
ATAAATATTTACAAAAGTACACATAACTTTAGATAT [XGTACX_site1685] | 9.6
CACCATGATACATACACACAGACATATACGCATTCA [CACACA_site1008] | 9.9
GTTTTGGCTAACTATTCACACATTAAAATATTACCA [CACACA_site5016] | 9.72

Sequence | gcPBM binding intensity (ln)
ACAATCCACAGGGGCGCACACATATAAGCAGTATAT [CACACA_site3817] | 10
AACCGGGCCTAAGATGTAATGCCTTAGCCTATAAAA [CACACA_negctrl_site479] | 9.36
CATAATATGACATACACACACAAAAAAAAAAAAATA [CACACA_site1285] | 10.1
TTTATATTAAAATATTGTACGGACATTATTTTGTAA [XGTACX_site8128] | 9.46
ATAAAATATATGAAGACACACATAACATCATATTTT [CACACA_site3144] | 9.89
TATTTCATTAATGTCACTTTGAAAGAAATGAAAAAA [CACACA_negctrl_site1803] | 9.38
AAAAAAAAAAGACACACACACAAAATAAACAAACAA [CACACA_site7308] | 10.8
TGTTTTTAAAAAAAAAAAAAATCACACCGGCAGGTA [CACACA_negctrl_site1437] | 9.49
TGCGTATATATATACACACACATATATATATTTTAA [CACACA_site1952] | 9.89
TATTGACATATATTAGTGCAATAATGAAATCAAGTA | 9.69
CATATTATTCTTTTCACACACGCGTTAATAATAATC [CACACA_site3931] | 10
ATACATCGTATATAAGTGCATATTAAGGTCTTAAGA [GTGCAC_site9560] | 9.69
GAACATTTGAAATATGCACACATGTATAAACATACA [CACACA_site5463] | 9.78
TATATATGTATCAAGTGTACAGTTTTAAAAAAAAAA [XGTACX_site6011] | 9.67
ACACACAATACAAAAGTGCATATAATAATTAATCAT | 10.1
TTGTAATTATTAAACACACACAAAATATATATAATA [CACACA_site2523] | 10.3
CCATAAAAATATAATACACACATATATATTAACATA [CACACA_site4102] | 9.78
AGGTGAGCTCAGACTACACACACAAAGAAAAAAATA [CACACA_site8439] | 10
AAAAAAAAAAAAAACACACACATACAGACAAAAATG [CACACA_site83] | 11.5

Sequence | gcPBM binding intensity (ln)
CTAAATTATAGATCAGTGCAATTTAATATGAGTCCA | 9.54
TTATCGACCAATAAAGCATGCAAAAAAAAAAAAAAA [TGCATGCA_site788] | 9.33
CTACATAAAAAAATATGTACATATATATATATATAT [XGTACX_site667] | 9.75
CCCACAGACAAAAACACACACAAAGGTGTTCTTATA [CACACA_site4840] | 10
AAGAGAAAAAGAATGAAAGAAAAAAAAAAAAAATAT [CACACA_negctrl_site1527] | 9.57
TTTTTAAAGGTGATAAAACACACGATTTAGAAATGT [CACACA_site3160] | 9.67
GTGTTGAATTATGTGCTTTTTTCTTTCTACTCAGTA [XGTACX_negctrl_site464] | 9.82
TTTAATATAACTATTTGTACATAAAGAATATAAATA [XGTACX_site4594] | 9.38
TAAATTTTTATTTGTAGTACTATATATATATATATA [XGTACX_site1026] | 9.61
TTTTTTTGCCATATTACACACACACGGGTAAACCCC [CACACA_site6874] | 10.1
TAATGAAAATATATAACACACAAAAGTTATAAATAT [CACACA_site1189] | 9.84
CCATTTAAAACATTTTGTACTTATTTTACATTTCTG [XGTACX_site4270] | 9.79
TCGACAATTTTATAAAGTACTTATTAGAAATATGAA [XGTACX_site7133] | 9.31
GATTCATTTCATAATACACACAACAAATATTTCAAA [CACACA_site120] | 9.72
AAACAAATAAAATTTATTAAAAAGGTCATATTATTA [CACACA_negctrl_site85] | 9.58
AGAAAAAAAAATTATACATGCATATACGTTTATTTT [TGCATGCA_site529] | 9.66
ATATTTTATATTTCTTGTACATATATTTGTAGATAT [XGTACX_site1140] | 9.75
TTTCTTACAACAACAACAAAAAAAAATAAATAAAAT [GTGCAC_negctrl_site711] | 9.55
AATTTATTTTTAAAAAGTACATACTTAAGAAAACGA [XGTACX_site3660] | 9.46
